57 molecules from PubChem BioAssay AID463173 (ICCB-Longwood Screening Facility, Harvard Medical School, 2010) can be followed below.

The structures appear in SMILES notation. In all, about 52,000 compounds went through this assay and about 1,700 (3.3%) were called active. No stated cut-off is given here; in the data, active means survival mostly below about 52% (no sharp cut-off); inactive means mostly above about 56%. Some of the results follow.

This experiment deals with Wild type. Nature of the experiment: growth inhibition of S. aureus wild type versus tarO mutant, primary screen, teichoic acid synthesis inhibitors, RN4220, OD600 (AID 463173). To be noted: S. aureus RN4220 wild type/DeltatarO growth, OD600, 18 h, active compounds read low, screened at 18.75 µg/mL (by protocol).
On to `Cc1cc(NC(=O)c2cc(-c3ccc(F)cc3)on2)nn1Cc1ccc(Cl)cc1`, for which the survival was inactive: 87%.
`COc1ccccc1CNc1ncnc2c1nc1n2CCCC1`: the survival is inactive: 77%.
Consider `Cc1ccc(Cl)cc1NC(=O)c1cc(S(=O)(=O)N2CCOCC2)cn1C`, for which the survival was inactive: 84%.
For the molecule `COC(=O)c1cc(NC(=O)Cn2ncc3c([nH]c4ccccc43)c2=O)cc(C(=O)OC)c1`, the survival was inactive: 53%.
`O=C(Cn1c(=O)c2cccn2c2ccc(F)cc21)Nc1cccc(F)c1`: the survival was inactive: 81%.
For `CCCCN(C)C(=O)C1CCC(Cn2c(=O)[nH]c3ccsc3c2=O)CC1` (configuration not stated), the survival is active: -2%.
Regarding `Cc1ccc2c(CC(=O)Nc3ccc(S(=O)(=O)N4CCCC(C)C4)cc3)coc2c1` (configuration not stated), the survival is inactive: 68%.
With `CC1CCN(S(=O)(=O)c2ccc3c(c2)N(CC(=O)NCCN(C)C)C(=O)CS3)CC1`, the survival is inactive: 87%.
As to `O=C(NCCc1ccccc1)c1ccc2c(c1)CCN2S(=O)(=O)c1ccc(Cl)cc1`, the survival was inactive: 114%.
For the molecule `CC1(C)CC(N=Cc2c(O)[nH]c(=O)[nH]c2=O)CC(C)(C)N1`, the survival is inactive: 95%.
Turning to `OC(c1ccccc1)c1nc2ccccc2n1Cc1c(F)cccc1Cl` (configuration not stated), the survival is inactive: 82%.
Consider `Fc1ccc(-n2nc(-c3ccccc3)c3cnc4ccccc4c32)cc1Cl`, for which the survival is inactive: 138%.
`CCOc1ccc(-c2cc3c(=O)n(CC(=O)NCc4ccccc4)ccn3n2)cc1`: the survival was inactive: 73%.
As to `Cc1oc2ncnc(N3CCOCC3)c2c1C(=O)Nc1ccc(Br)cc1F`, the survival was inactive: 129%.
`COCCNC(=O)CSc1nc(-c2ccc(C)cc2)[nH]c1-c1ccc(OC)cc1`: the survival is inactive: 79%.
Take `O=C(CSc1nc(=O)n(Cc2ccccn2)c2c1CCC2)Nc1cccc(Cl)c1`: the survival was inactive: 71%.
Take `O=C(O)c1ccccc1SC1CC(=O)N(c2ccc(N3CCCCC3)cc2)C1=O` (configuration not stated): the survival was inactive: 96%.
Then `CC(C)CCNC(=O)C1CCC(CNS(=O)(=O)c2cccc3nsnc23)CC1` (configuration not stated), with inactive: 131%.
On to `CCc1ccc(NC(=O)CN2C(C(=O)OC)=C(c3ccccc3)c3ccccc3S2(=O)=O)cc1`, for which the survival was inactive: 75%.
`CCCc1nn2c(=O)cc(COC(=O)c3ccccc3NC(=O)c3ccc(OCC)cc3)nc2s1`: the survival is inactive: 22%.
Regarding `Cc1ccc(-c2c3c(=O)n(C)c(=O)n(C)c3c3c(C)nc4ccccc4n23)cc1`, the survival was inactive: 70%.
On to `Cn1cnnc1SCC(=O)c1ccccc1`, for which the survival is inactive: 101%.
Consider `COc1ccc(NC(=O)Cn2ccn(-c3ccc(C)c(C)c3)c(=O)c2=O)cc1Cl`, for which the survival is inactive: 87%.
Regarding `Cc1cc(N2CCN(c3ccc(F)cc3)CC2)n2cnnc2n1`, the survival is inactive: 93%.
Then `Cc1ccc(Oc2ccc(C#N)c(C#N)c2)c(-n2nc3ccccc3n2)c1`, with inactive: 112%; and `Cc1ccc(C(=O)c2cn(Cc3ccccc3)c3ccccc3c2=O)cc1`, with inactive: 87%.
Turning to `Cc1cccc(-c2nc3cc(NC(=O)COc4ccccc4F)ccc3o2)c1`, the survival was inactive: 119%.
Regarding `O=C(CN1CCC(NC(=O)Nc2ccccc2-c2ccccc2)CC1)NCc1ccco1`, the survival is inactive: 102%.
Regarding `Cc1ccccc1OCC(=O)Nc1ccccc1C(=O)OCc1cc(=O)n2nc(C3CC3)sc2n1`, the survival was inactive: 69%.
For the molecule `Cc1cccc(NC(=O)c2oc3ccccc3c2NC(=O)Cc2coc3cc(C)cc(C)c23)c1`, the survival is inactive: 88%.
Consider `CN(C)Cc1ccc(C(=O)O)o1`, for which the survival was inactive: 103%.
For the molecule `COc1ccc(Cl)cc1NC(=O)CSc1nc(=O)[nH]c2c1CCC2`, the survival is inactive: 110%.
`CC(C)Sc1ncc(Cl)c(C(=O)N(Cc2ccc(F)cc2)C2CCS(=O)(=O)C2)n1` (configuration not stated): the survival was inactive: 88%.
As for `Cc1ccc(-c2nn3c(-c4ccccc4)nnc3c3ccccc23)cc1`, the figure is inactive: 76%; as for `O=C(Cc1cccs1)NC1CC(=O)N(c2ccc(Cl)cc2)C1` (configuration not stated), inactive: 76%; as for `Cc1cccc(C(=O)OCc2cc(=O)n3nc(C4CCCCC4)sc3n2)c1`, inactive: 77%.
Then `O=C(NC1CCCC1)C(c1ccncc1)N(CCCN1CCOCC1)C(=O)c1ccc(-c2ccccc2)[nH]1` (configuration not stated), with inactive: 110%; and `O=C(NCCC1=CCCCC1)c1ccc2c(c1)N(Cc1ccccc1F)C(=O)c1ccccc1S2(=O)=O`, with inactive: 88%; and `CCc1cccc(N2C(=O)CS(=O)(=O)C23C(=O)N(Cc2ccc(F)cc2)c2ccc(C)cc23)c1` (configuration not stated), with inactive: 127%.
For the molecule `COc1ccc(N2Cc3cccc(C(=O)Nc4ccc(C)c(C)c4)c3C2=O)cc1`, the survival is inactive: 84%.
As for `Cc1ccc(C)c(NC(=O)OCC(C)C)c1`, the figure is inactive: 103%; as for `CCOc1ccc(N2CC(NC(=O)Cc3ccccc3)CC2=O)cc1` (configuration not stated), inactive: 131%; as for `Cc1ccc(NC(=O)CN2C(=O)C(C)(C)c3ccccc32)cc1`, inactive: 77%.
With `CCOC(=O)c1c(NC(=O)c2ccc(S(=O)(=O)N3CCCC(C)C3)cc2)sc2c1CCN(C(C)C)C2` (configuration not stated), the survival is inactive: 83%.
In the case of `Cc1ccc(S(=O)(=O)c2nc(-c3ccco3)oc2SCc2ccccc2Cl)cc1`, the survival is inactive: 65%.
Turning to `COc1ccc(N2CC(NC(=O)COc3ccccc3C)CC2=O)cc1OC` (configuration not stated), the survival was inactive: 138%.
As to `CCN1c2cc(C)ccc2-n2cccc2C12CCN(C(=O)Nc1cc(OC)c(OC)c(OC)c1)CC2`, the survival was inactive: 74%.
As for `Cc1cc(C)cc(NC(=O)C(=O)NC(C)c2ccccc2)c1` (configuration not stated), the figure is inactive: 82%.
In the case of `CCOC(=O)c1cc(-c2ccccc2)n(-c2cccc(C(=O)N(CC)c3ccccc3)c2)c1C`, the survival is inactive: 89%.
`CCC(OC(=O)c1cc2sccc2n1C(C)C)C(=O)NCc1ccc(OC)cc1` (configuration not stated): the survival is inactive: 117%.
In the case of `Cc1ccc(-n2c(SCC(=O)Nc3cccc(F)c3)nc3c(oc4ccccc43)c2=O)cc1C`, the survival is inactive: 101%.
With `Cc1c2cnn(-c3ccccc3)c(=O)c2c(C)n1C(C)C(=O)Nc1ccc(Br)cc1F` (configuration not stated), the survival is inactive: 78%.
In the case of `CC(C)c1ccc2oc(-c3cccc(NC(=O)c4ccc5c(c4)OCCO5)c3)nc2c1`, the survival was inactive: 32%.
On to `Cc1cc(C)cc(-n2ccn3c(CC(C)(C)CC(=O)O)nnc3c2=O)c1`, for which the survival was inactive: 64%.
Turning to `C=CCN1C2=NCCCN2c2ccccc21`, the survival was inactive: 113%.
Take `Cc1ccc2oc3c(c(=O)c2c1)C(c1cccc(O)c1)N(Cc1ccccc1Cl)C3=O` (configuration not stated): the survival was inactive: 82%.
Then `COc1cccc(NC(=O)C2CCCN2S(=O)(=O)c2ccc3c(c2)C(C)(C)C(=O)N3C)c1` (configuration not stated), with inactive: 109%.
